# From publication PMC4336329 (PLoS ONE, 2015)
# In all, about 310,000 compounds went through this assay and about 14,000 (4.5%) showed an effect of 50% or more. Effects have a minus sign here. The list shows a part of the results. Where a SMILES comes first, the peptide text is derived from it. [ ]: non-standard residue; d: D form. The star is where a group is joined. Cbz = O=C(OCc1ccccc1)*
# Target: human ether-à-go-go-related gene (hERG) potassium channel (human, UniProt Q12809)
# Test: primary screen, population patch clamp on CHO cells stably expressing hERG
# 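Note: peak tail current of the secondary pulse compared with the same well before compound.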
# human ether-à-go-go-related gene (hERG) potassium channel, sequence (Q12809 whole entry, looked up): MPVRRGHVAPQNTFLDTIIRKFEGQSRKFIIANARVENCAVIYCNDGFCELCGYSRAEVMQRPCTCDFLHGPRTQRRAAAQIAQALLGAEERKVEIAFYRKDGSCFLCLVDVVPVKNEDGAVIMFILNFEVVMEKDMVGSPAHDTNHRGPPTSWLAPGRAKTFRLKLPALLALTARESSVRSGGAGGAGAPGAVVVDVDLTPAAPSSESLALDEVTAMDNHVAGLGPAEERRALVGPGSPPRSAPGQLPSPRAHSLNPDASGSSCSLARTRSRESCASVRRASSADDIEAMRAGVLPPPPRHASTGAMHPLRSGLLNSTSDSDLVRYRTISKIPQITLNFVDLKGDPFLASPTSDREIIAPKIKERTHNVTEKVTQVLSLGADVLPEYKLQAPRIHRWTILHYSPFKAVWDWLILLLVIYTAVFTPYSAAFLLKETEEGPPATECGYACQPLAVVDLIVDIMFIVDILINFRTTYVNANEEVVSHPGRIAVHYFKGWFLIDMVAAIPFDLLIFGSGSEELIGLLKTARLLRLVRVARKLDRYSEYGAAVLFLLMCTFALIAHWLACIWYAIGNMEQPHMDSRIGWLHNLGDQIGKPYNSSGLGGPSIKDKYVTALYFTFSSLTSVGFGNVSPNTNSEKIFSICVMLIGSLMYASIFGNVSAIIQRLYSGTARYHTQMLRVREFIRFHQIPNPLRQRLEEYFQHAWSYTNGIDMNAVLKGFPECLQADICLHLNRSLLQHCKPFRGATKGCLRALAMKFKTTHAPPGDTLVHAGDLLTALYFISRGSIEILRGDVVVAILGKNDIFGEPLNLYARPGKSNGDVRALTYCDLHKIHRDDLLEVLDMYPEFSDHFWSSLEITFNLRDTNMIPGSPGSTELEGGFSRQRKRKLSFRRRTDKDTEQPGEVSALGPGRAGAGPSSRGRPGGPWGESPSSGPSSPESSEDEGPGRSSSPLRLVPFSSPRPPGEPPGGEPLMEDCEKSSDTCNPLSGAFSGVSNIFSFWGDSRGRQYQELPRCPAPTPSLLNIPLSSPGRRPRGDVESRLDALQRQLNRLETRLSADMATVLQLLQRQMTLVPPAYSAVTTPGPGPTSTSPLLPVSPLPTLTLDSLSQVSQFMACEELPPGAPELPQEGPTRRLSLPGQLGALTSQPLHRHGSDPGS
row,SMILES,"hERG current change (%, negative = inhibition) at 10uM [%]"
1,COc1ccccc1N1CCN(C(=O)C(=O)N/N=C/c2cccc(O)c2)CC1,-3.36
2,CCC(Oc1ccccc1)C(=O)Nc1ccccn1 (stereo not shown),8.82
3,CCCNC(=O)Nc1ccc(F)c(Cl)c1,15.6
4,CCCC1=C(C(=O)OCC)C(c2ccc(NC(C)=O)cc2)NC(=O)N1 (stereo not shown),0.994
5,Cc1cccc(CCNC(=O)COc2cc(=O)n(C)c3ccccc23)c1,-17.6
6,COc1ccc(Cn2c(C)c(C)c(C#N)c2NC(=O)Nc2cccc(Cl)c2)cc1,15.4
7,COc1ccc(N2CCN(C(=O)COC(=O)c3ccc(OC(F)F)cc3)CC2)cc1,-26.5
8,CC(=O)Nc1ccccc1-c1nc2ccc(C(=O)N3CCN(c4cc(C)ccc4C)CC3)cc2[nH]c1=O,-23.5
9,CC1C(=O)Nc2ccc(S(=O)(=O)N3CCN(c4ccccc4F)CC3)cc2NC1=O (stereo not shown),-20.9
10,O=C(Nc1ccccc1)c1ccc(S(=O)(=O)N2CCC(C(=O)O)CC2)cc1,13.3
11,COc1ccc(-n2cnnc2SCc2cnc(-c3ccccc3)s2)cc1,-18.3
12,Cc1ccc(C2C(C(=O)c3ccco3)=C(O)C(=O)N2c2ncccn2)cc1 (stereo not shown),9.22
13,COC(=O)c1ccc(COc2ccc(C=O)cc2)o1,-0.0519
14,CCCCn1c(N)c(N(CC)C(=O)C2=NN(c3ccccc3)C(=O)CC2)c(=O)[nH]c1=O,8.33
15,CC(C)(C)C1CCC(=NNC(=O)c2ccccc2-n2cccc2)CC1 (stereo not shown),9.9
16,COc1ccccc1C(c1nnnn1C1CCCC1)N1CCN2CCCC2C1 (stereo not shown),-5.64
17,COCC(=O)Nc1nnc(Cc2ccc(OC)cc2)s1,4.46
18,CC1CN(c2nc(Nc3ccccc3F)nc(N)c2[N+](=O)[O-])CC(C)O1 (stereo not shown),-36.7
19,COC(=O)[C@H](CCSC)NC(=O)[C@@H](Cc1cnc[nH]1)NC(=O)OCc1ccccc1 (Cbz-[dH]-Met-OMe),16.6
20,CC(C)C(c1nnnn1C1CCCCC1)N1CCc2ccccc2C1 (stereo not shown),2.91
21,O=C(NNS(=O)(=O)c1ccc(F)cc1)c1ccccc1,18.8
22,Cn1cccc1-c1nc2ccccc2n1C,-1.23

row,SMILES,"hERG current change (%, negative = inhibition) at 10uM [%]"
1,CCN(CC)c1nc(-c2ccccc2)ncc1S(=O)(=O)c1ccc(C)cc1,46.9
2,CCOC(=O)N1CCC(N(CCN(C)C)C(=S)Nc2ccccc2OC)CC1,-16.2
3,CN(c1ccccc1)S(=O)(=O)c1cccc(NC(=O)Cn2cnc3ccccc3c2=O)c1,-48.3
4,Cc1ccc(S(=O)(=O)N(Cc2ccc(F)cc2)Cc2ccco2)cc1,2.28
5,COc1ccc(CNC(=O)CN(Cc2ccccc2)C(=O)c2csnn2)cc1,-32.3
6,CC(OC(=O)c1cc2c(ccc3ccccc32)oc1=O)c1nc2ccccc2s1 (stereo not shown),6.74
7,O=C(Nc1cccc2nsnc12)c1cccs1,17.5
8,O=C(Cc1ccccc1)Nc1ccccc1C(=O)NCC1CCCO1 (stereo not shown),5.27
9,Cl.O=C(O)CNCC1COc2ccccc2O1 (stereo not shown),-6.35
10,CCOC(=O)C1CCCN(c2ncnc3c2oc2ccccc23)C1.Cl (stereo not shown),-43
11,Cc1ccc(NC(=O)c2ccco2)c(NC(=O)C2CCCO2)c1 (stereo not shown),9.38
12,O=c1c(Cc2ccccc2)c(O)ccn1Cc1ccc2c(c1)OCO2,18.9
13,COc1ccc2[nH]c(=O)c(CN(Cc3cccs3)S(=O)(=O)c3c(C)ccc4nsnc34)cc2c1,-11.3
14,CCNC(=O)NC(=O)C(C)OC(=O)c1cccnc1SC (stereo not shown),-22.1
15,COc1ccc(C(=O)Nc2ccccc2C(=O)O)cc1Cl,5.33
16,CN1/C(=C/C=C(C#N)C#N)C(C)(C)c2ccccc21,14.7
17,O=C(CCCOc1ccccc1)Nc1cccc(S(=O)(=O)N2CCCCC2)c1,-21.5
18,CCN(CCCNC(=O)C1CCN(S(=O)(=O)N2CCOCC2)CC1)c1cccc(C)c1,-8.96
19,Nc1nnc(SCC(=O)c2ccccc2)s1,11.4
20,CC[C@@]12C(=O)N(c3cccc(C)c3)C(=O)N1[C@H](c1ccc(Br)cc1)[C@@H]1C(=O)N(C(C)(C)C)C(=O)[C@@H]12,-2.53
21,O=C(N1CCCCC1)N1CCCN(C(=O)N2CCCCC2)CC1,11.5
22,CCN(C(=O)c1ccccc1Cl)c1ccccc1,13.9

row,SMILES,"hERG current change (%, negative = inhibition) at 10uM [%]"
1,CCc1nc2sc3c(c2c(=O)n1NC(=O)CCl)CCCC3,-5.54
2,CN(Cc1nc(-c2ccncc2)no1)S(=O)(=O)c1ccc(Br)cc1,-58.1
3,Cc1cccc(-n2c(SC(C)C(=O)O)nc3sc4c(c3c2=O)CCCC4)c1 (stereo not shown),26.2
4,Cc1ccc(-n2nnnc2C(=Cc2ccc(N(C)C)cc2)c2nnnn2-c2ccc(C)cc2)cc1,6.65
5,CSc1ccc(S(=O)(=O)NC2CC2)cc1,9
6,O=C(O)C(=O)O.O=C(c1cccc(F)c1)N1CCN(CC2CC3C=CC2C3)CC1 (stereo not shown),-2.22
7,COc1cc(OC)c(C(=O)Oc2ccc3c(c2)OCO3)cc1OC,6.46
8,CCCOc1ccc(C(O)CCNC(CC(=O)O)c2ccccc2)cc1 (stereo not shown),23.4
9,CCOC(=O)C1(C(F)(F)F)N=C(C(F)(F)F)Nc2ccccc21 (stereo not shown),-2.27
10,O=c1[nH]cnc2c1ncn2Cc1ccc([N+](=O)[O-])cc1,33.3
11,COn1c(SCc2ccc(Cl)cc2)nc2ccccc2c1=O,-7.27
12,CCOC(=O)c1sc2nc3c(SCCC#N)cc(C(=O)c4cc(F)ccc4O)cn3c(=O)c2c1C,-10.1
13,O=c1cccc2n1CC1CC2CN(c2nc(N3CCCCC3)nc(N3CCCCC3)n2)C1 (stereo not shown),-13
14,Cc1ccc(/C=C/C(=O)NCCCN2CCN(CCCNC(=O)/C=C/c3ccc(C)o3)CC2)o1,-78.3
15,Cc1c(-n2c(SCC(=O)NC(C)C(C)C)nc3ccccc3c2=O)c(=O)n(-c2ccccc2)n1C (stereo not shown),15
16,COc1ccccc1N1CCN(C2CCCN(S(=O)(=O)c3ccccc3)C2)CC1 (stereo not shown),-29.5
17,CC(OC(=O)Cc1coc2ccc3ccccc3c12)C(=O)Nc1ncc(Cl)cc1Cl (stereo not shown),-7.41
18,CCOC(=O)N1CCN(C(=O)CN(C)S(=O)(=O)c2ccc(OCC)cc2)CC1,-6.98
19,Cc1ccc(C)c(NC(=O)C2CC3c4ccccc4C2c2ccccc23)c1 (stereo not shown),12.2
20,COC(=O)c1c(N2C(=O)Nc3ccccc3N2O)sc(C)c1C,23.2
21,COC(=O)COc1ccc(C2NC(=O)NC(c3ccccc3)=C2C(C)=O)cc1OC (stereo not shown),12
22,CN(C)C1(CNC(=O)C2CCN(S(=O)(=O)c3cc(Cl)ccc3Cl)CC2)CCCCC1,-64.1

row,SMILES,"hERG current change (%, negative = inhibition) at 10uM [%]"
1,COc1ccc(/C=N/NC(=O)Cc2ccc(Cl)cc2)cc1OC,0.921
2,COc1ccc(N2CCC(CNC(=S)Nc3cc(C)ccc3C)C2)cc1 (stereo not shown),-4.75
3,COc1ccc(C)cc1NC(=O)CCN1CCCC1,2.36
4,COC(=O)/C=C1/N/C(=N\c2nc(C)cc(C)n2)N(c2ccc(C)c(C)c2)C1=O,-3.78
5,Cc1cccn2c(=O)c3cc(C(=O)NCCN4CCOCC4)c(=N)n(CCCN4CCOCC4)c3nc12,15.2
6,CCN(CC)C(=O)CSc1nc2ccccc2c(=O)n1-c1ccccc1OC,-19.4
7,CCN(/N=C/c1ccc(Cl)cc1)c1cc(=O)n(C)c(=O)[nH]1,0.296
8,COc1ccccc1NS(=O)(=O)c1ccc(C)c(NC(=O)c2c(C)noc2C)c1,-8.94
9,CCN(CCNC(=O)c1cc(C)nn1-c1ccccc1)c1ccccc1,-4.11
10,Cc1cccc(C)c1N1CCN(c2cc(Cl)nc(N)n2)CC1,6.96
11,O=C(C1CCCN(Cc2nc(-c3ccc(Cl)cc3)no2)C1)N1CCOCC1 (stereo not shown),1.39
12,CC(=O)c1nc2ccccc2n1S(=O)(=O)c1ccc(C)cc1,17.3
13,Cc1ccc(NC(=O)Nn2cnnc2)cc1,23.2
14,CC(C)(C)n1ncc2c(=O)n(Cc3c(F)cccc3Cl)cnc21,-4.72
15,CCc1ccccc1N1C(=O)CC(=O)NC1=O,28.5
16,COC(=O)Nc1sc2c(c1C(=O)NC1CC1)CCCCCC2,-18.8
17,CCCOc1ccc(C(=O)N2CCCC2)cc1OC,-3.36
18,CCOC(=O)c1cc(-c2ccc(C)cc2)n(CCC(=O)NC(C)CC)c1C (stereo not shown),16.7
19,C=C(C)CNC(=S)N/N=C(\C)c1ccc(OC)cc1,-0.81
20,Cc1cc(Nc2cccc([N+](=O)[O-])c2)c2cccc(C)c2n1.Cl,-77.3
21,COc1cccc(CNC(=O)CNC(=O)N2CC(=O)Nc3ccccc32)c1,16.6
22,COc1ccc(N/C=C(\C2OC(=O)c3ccccc32)[N+](=O)[O-])cc1 (stereo not shown),8.53
